US12501864B2 (priority 2020, dated 2025)

Conditions: in vivo

CCN(Cc1cccc(S(=O)(=O)[O-])c1)c1ccc(C(=C2C=CC(=[N+](CC)Cc3cccc(S(=O)(=O)[O-])c3)C=C2)c2ccccc2S(=O)(=O)[O-])cc1.[Na+].[Na+] [Brilliant Blue E 133]
distribution of the test substance within the stem: ~5 meters
